Target: T1, GST-tagged Ric-8A, unphosphorylated (rat, UniProt Q80ZG1 1-530)
T1 sequence (looked up): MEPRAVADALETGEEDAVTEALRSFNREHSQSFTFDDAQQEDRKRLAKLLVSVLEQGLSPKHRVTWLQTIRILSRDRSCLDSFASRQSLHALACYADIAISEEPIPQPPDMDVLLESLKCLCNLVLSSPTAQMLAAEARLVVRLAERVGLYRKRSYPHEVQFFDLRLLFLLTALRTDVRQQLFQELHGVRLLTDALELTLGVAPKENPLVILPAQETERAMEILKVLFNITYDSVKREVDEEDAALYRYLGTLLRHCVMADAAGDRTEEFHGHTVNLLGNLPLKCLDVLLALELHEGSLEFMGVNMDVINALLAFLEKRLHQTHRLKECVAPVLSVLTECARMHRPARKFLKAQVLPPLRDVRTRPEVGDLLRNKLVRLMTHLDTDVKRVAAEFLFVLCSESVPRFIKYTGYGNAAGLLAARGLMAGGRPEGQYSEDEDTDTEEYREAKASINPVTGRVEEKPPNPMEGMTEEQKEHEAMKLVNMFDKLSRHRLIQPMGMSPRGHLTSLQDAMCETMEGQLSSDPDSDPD
Assay: flow cytometry protein interaction assay

Kd: 596 ± 205 nM
B1: Gαi1 fused to cyan fluorescent protein (Gαi1-CFP) (natural protein)
chain: not shown
